Source: publication PMC10902316
These are yes or no findings as the source states them, for the method shown. In cells and extracts the contact can be indirect. Some entries that bind do so weakly or less than the wild type.

Amino acid sequences for entries named in this document (tags omitted). A change or cut given only in a name is not applied to a line headed by its entry.
UniProt Q14686: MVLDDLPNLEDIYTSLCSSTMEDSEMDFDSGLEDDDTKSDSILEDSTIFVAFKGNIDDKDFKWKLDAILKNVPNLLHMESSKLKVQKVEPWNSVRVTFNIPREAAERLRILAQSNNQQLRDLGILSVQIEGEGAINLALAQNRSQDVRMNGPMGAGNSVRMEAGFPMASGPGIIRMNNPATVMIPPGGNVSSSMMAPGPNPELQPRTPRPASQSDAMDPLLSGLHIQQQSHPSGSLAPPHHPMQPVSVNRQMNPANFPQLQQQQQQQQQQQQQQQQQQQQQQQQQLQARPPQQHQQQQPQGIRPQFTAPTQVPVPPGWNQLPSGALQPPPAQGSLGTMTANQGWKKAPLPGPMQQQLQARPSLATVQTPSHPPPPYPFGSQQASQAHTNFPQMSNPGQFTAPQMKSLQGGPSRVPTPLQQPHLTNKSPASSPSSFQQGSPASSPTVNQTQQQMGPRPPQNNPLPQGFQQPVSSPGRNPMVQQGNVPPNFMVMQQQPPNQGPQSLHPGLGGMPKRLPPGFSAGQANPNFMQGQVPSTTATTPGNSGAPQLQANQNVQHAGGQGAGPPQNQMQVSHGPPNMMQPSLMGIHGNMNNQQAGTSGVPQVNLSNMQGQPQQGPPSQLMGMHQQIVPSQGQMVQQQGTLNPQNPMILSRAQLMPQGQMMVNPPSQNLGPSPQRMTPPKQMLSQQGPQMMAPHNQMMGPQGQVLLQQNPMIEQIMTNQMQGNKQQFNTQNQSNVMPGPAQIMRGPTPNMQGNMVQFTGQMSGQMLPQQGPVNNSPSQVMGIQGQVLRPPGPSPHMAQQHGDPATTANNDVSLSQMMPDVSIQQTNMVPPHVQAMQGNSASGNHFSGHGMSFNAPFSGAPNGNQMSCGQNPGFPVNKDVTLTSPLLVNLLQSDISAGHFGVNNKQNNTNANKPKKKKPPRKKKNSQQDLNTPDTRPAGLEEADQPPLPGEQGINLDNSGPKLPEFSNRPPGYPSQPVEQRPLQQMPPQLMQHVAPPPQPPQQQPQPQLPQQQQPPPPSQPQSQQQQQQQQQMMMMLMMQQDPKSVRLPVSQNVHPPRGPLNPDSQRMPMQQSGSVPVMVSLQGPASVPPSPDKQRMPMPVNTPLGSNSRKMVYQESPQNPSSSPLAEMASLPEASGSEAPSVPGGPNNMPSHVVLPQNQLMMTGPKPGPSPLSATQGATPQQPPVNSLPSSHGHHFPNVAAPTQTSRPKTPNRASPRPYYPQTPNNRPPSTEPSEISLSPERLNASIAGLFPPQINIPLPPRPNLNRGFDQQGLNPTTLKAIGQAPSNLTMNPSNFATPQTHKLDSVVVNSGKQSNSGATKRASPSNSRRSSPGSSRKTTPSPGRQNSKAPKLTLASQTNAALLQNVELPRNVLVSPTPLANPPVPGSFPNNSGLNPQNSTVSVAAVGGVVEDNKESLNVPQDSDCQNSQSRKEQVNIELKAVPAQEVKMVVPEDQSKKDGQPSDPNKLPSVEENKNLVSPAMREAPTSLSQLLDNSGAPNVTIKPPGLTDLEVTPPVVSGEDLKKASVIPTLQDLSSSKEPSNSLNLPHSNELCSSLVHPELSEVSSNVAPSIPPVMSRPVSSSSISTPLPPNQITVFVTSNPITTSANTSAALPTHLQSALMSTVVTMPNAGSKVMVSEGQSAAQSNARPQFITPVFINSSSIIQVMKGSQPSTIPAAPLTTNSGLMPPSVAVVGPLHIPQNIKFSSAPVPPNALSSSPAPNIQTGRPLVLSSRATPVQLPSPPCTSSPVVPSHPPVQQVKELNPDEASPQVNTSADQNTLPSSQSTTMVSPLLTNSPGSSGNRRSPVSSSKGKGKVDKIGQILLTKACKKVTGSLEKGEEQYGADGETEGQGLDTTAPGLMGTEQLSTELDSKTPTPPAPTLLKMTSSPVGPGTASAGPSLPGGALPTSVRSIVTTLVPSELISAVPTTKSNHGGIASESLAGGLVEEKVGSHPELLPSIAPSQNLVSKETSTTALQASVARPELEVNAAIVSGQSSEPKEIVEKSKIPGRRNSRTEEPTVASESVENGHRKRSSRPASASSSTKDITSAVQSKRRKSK
UniProt Q96P20: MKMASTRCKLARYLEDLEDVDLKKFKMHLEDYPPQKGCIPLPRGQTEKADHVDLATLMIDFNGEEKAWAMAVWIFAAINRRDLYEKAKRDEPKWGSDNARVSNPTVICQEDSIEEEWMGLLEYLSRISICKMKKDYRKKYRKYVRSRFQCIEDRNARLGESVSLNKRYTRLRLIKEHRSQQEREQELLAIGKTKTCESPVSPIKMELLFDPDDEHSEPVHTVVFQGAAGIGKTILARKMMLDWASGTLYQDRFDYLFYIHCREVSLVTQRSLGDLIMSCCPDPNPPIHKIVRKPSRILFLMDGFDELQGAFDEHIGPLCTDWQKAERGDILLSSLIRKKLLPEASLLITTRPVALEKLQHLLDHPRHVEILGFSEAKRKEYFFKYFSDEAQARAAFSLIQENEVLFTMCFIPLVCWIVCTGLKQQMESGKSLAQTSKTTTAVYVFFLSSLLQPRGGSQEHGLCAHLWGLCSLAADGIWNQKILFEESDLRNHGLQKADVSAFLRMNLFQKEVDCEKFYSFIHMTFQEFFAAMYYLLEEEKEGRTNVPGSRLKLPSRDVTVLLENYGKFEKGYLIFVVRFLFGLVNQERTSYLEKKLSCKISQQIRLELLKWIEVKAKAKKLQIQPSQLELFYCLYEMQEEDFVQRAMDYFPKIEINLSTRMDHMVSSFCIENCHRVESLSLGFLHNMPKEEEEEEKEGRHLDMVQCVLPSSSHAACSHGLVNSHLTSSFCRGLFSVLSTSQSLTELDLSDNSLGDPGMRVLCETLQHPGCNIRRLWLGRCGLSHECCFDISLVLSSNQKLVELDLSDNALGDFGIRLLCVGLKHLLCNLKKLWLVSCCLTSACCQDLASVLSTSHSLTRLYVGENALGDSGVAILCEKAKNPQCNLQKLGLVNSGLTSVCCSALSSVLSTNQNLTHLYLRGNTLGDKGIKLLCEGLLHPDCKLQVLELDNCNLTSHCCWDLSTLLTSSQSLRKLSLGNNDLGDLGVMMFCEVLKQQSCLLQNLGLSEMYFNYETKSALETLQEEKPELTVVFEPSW
UniProt Q9ULZ3: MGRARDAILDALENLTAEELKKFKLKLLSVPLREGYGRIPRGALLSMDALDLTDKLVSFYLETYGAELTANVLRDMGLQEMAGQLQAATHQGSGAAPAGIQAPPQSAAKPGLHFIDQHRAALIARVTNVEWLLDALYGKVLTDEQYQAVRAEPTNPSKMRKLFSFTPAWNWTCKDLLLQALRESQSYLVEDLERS

How the values were obtained:
[1] = biological target: NCOA6 in HEK293T cells (precipitated with anti-NCOA6 Ab) (human (endogenous in HEK293T)) (UniProt Q14686); test: co-IP; HEK293T cells overexpressing FLAG-NLRP3 (wild type, single domains or Walker mutant) and/or Myc-ASC for 24 h; lysates precipitated with anti-NCOA6 Ab and Protein G agarose; immunoblot
[2] = biological target: NLRP3, endogenous in THP-1 cells (human (endogenous in THP-1)) (UniProt Q96P20); test: co-IP; PMA-differentiated THP-1 cells stimulated with ATP or LPS + ATP (also ATP with added extracellular KCl); lysates precipitated with anti-NLRP3 Ab and Protein G agarose, IP lysis buffer 20 mM Tris-Cl pH 7.5, 150 mM NaCl, 1% NP40; immunoblot
[3] = biological target: NLRP3, endogenous in THP-1 cells (human (endogenous in THP-1)) (UniProt Q96P20); test: proximity ligation; PMA-stimulated THP-1 cells primed with LPS (100 ng/ml, 4 h) then ATP (5 mM, 30 min), fixed; anti-NCOA6 and anti-NLRP3 antibodies, Duolink

Row | binding [1] | binding [2] | binding [3] | Substance
1 | binds | – | – | FLAG-tagged NLRP3 NACHT domain (from UniProt Q96P20 220-536) (domain or fragment)
2 | no binding | – | – | Myc-tagged ASC (from UniProt Q9ULZ3 1-195)
3 | binds | – | – | FLAG-tagged NLRP3 full length (wild type) (from UniProt Q96P20 1-1036)
4 | – | binds | binds | Nuclear receptor coactivator 6 (NCOA6), endogenous in THP-1 cells (from UniProt Q14686 1-2063)
